# From PubChem BioAssay (NCATS)
# Inconclusive means that the source gave no clear call. Such entries were picked first, then a sample of the others. For some of these results: No potency is given beside an inconclusive call; the fits are too rough. The source made the active and inactive calls. Calls follow the shape of the dose curve; as a rule, active = well fitted curve in the direction sought with a large enough effect; inconclusive = small, poorly fitted or top-dose-only effect, or another doubt; inactive = no such curve, though single readings can be large; an effect the other way counts as inactive or inconclusive.
# Legend:
# [1] = tested on: Zika virus NS2B-NS3 protease (linked construct); test: Primary screen NINDS Rhodamine qHTS for Zika virus inhibitors (AID 1347160); conditions: activity change, negative = inhibition: at 57.1 µM (top of the series) unless noted; also: nearly all actives have a fitted effect of over 55% in size; also: potency is read from the fitted curve at half-maximal effect
# Procedure, shortened: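 Kinetic fluorescence (Ex 480 nm, Em 540 nm) over 15 min with 1.5 microM Rhodamine110 peptide and 25 nM linked protease.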
# [2] = qHTS of pediatric cancer cell lines to identify multiple opportunities for drug repurposing: Primary screen for RD cells (AID 1347104); conditions: RD rhabdomyosarcoma viability, CellTiter-Glo luminescence, 48 h; activity change, negative = cytotoxic: at 46 µM (top of the series); also: potency is read from the fitted curve at half-maximal effect; nearly all actives have a fitted effect of over 55% in size
# Procedure, shortened: (§1)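 500-1,000 cells/well; 5 h pre-incubation 37 °C/5% CO2; compound pinned; 48 h; CellTiter-Glo, 15 min RT; luminescence. MIPE 11-pt from 0.78 nM, NPC 8-pt from 0.59 nM final. Bortezomib 2.3 µM final as positive control.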
# [3] = target: Phospholipid hydroperoxide glutathione peroxidase GPX4 (Homo sapiens) (UniProt P36969); test: Primary qHTS Assay for Inhibitors of Recombinant Selenoprotein Glutathione Peroxidase 4 (GPX4) (AID 1845192); also: potency is read from the fitted curve at half-maximal effect; nearly all actives have a fitted effect of over 65% in size
# Procedure, shortened: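 GR-coupled readout: 100 nM GR, 1 mM GSH, 0.5 mM NADPH; NADPH fluorescence (ex 340/em 450 nm) read at t=0 and after 15 min RT. GPX4 200 nM, preincubated 30 min with compound; substrate 0.5 mM CHP.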
# [4] = qHTS of pediatric cancer cell lines to identify multiple opportunities for drug repurposing: Primary screen for TC32 cells (AID 1347089); also: potency is read from the fitted curve at half-maximal effect; nearly all actives have a fitted effect of over 60% in size
# Procedure, shortened: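 TC32 cells, 500-1,000/well in growth medium, compound-treated 48 h at 37 °C; viability from CellTiter-Glo luminescence. Primary screen: MIPE 11-point (0.78 nM–46 µM final), NPC 8-point (0.59 nM–46 µM final); confirmatory at 11-point dilutions.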
# [5] = qHTS of pediatric cancer cell lines to identify multiple opportunities for drug repurposing: Primary screen for U-2 OS cells (AID 1347096); also: potency is read from the fitted curve at half-maximal effect; nearly all actives have a fitted effect of over 50% in size
# Procedure, shortened: (§2)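 Cells (500-1,000/well) in growth media were settled 5 h at 37 degrees C, then given compounds for 48 h. Viability was read as CellTiter-Glo luminescence. Primary runs used MIPE at 11 points (0.78 nM-46 µM) and NPC at 8 points (0.59 nM-46 µM); follow-ups used 11 points.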
# [6] = qHTS of pediatric cancer cell lines to identify multiple opportunities for drug repurposing: Primary screen for Rh18 cells (AID 1347102); also: potency is read from the fitted curve at half-maximal effect; nearly all actives have a fitted effect of over 65% in size
# Procedure, shortened: as §2
# [7] = qHTS of pediatric cancer cell lines to identify multiple opportunities for drug repurposing: Primary screen for MG 63 (6-TG R) cells (AID 1347105); conditions: MG 63 (6-TG R) viability, CellTiter-Glo, 48 h; activity change, negative = cytotoxic: at 46 µM (top of the series); also: potency is read from the fitted curve at half-maximal effect; nearly all actives have a fitted effect of over 50% in size
# Procedure, shortened: as §1
# [8] = qHTS of pediatric cancer cell lines to identify multiple opportunities for drug repurposing: Primary screen for control Hh wild type fibroblast cells (AID 1347106); also: potency is read from the fitted curve at half-maximal effect; nearly all actives have a fitted effect of over 55% in size
# Procedure, shortened: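 Viability after 48 h compound treatment at 37C, 500-1,000 cells/well, read as ATP luminescence with CellTiter-Glo. Primary screens used 11-point (MIPE, 0.78 nM-46 µM) or 8-point (NPC, 0.59 nM-46 µM) final concentrations; follow-up screens used 11-point dilutions.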
# MCC-13 = test: qHTS assay to identify novel small-molecules to repurpose for Merkel cell carcinoma treatment (AID 1296009); conditions: MCC and control cell lines, CellTiter-Glo viability, 72 h; series mostly up to 46 µM; also: potency is read from the fitted curve at half-maximal effect; nearly all actives have a fitted effect of over 60% in size
# Procedure, shortened: (§3)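 qHTS format: cells treated with library compounds in DMSO across 8 (NPC) or 11 (MIPE) concentrations. Readout after 72 hr at 37 degree celsius was CellTiter-Glo luminescence.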
# [9] = qHTS of pediatric cancer cell lines to identify multiple opportunities for drug repurposing: Primary screen for SK-N-MC cells (AID 1347093); conditions: SK-N-MC viability, CellTiter-Glo luminescence, 48 h; activity change, negative = cytotoxic: at 46 µM (top of the series); also: potency is read from the fitted curve at half-maximal effect;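 as to activity change, negative = cytotoxic: plate controls were DMSO neutral control for no effect and bortezomib for full effect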
# Procedure, shortened: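 Metabolically active cells were quantified by ATP-dependent luminescence (CellTiter-Glo, 15 min at room temperature) following 48 h treatment. Cells had been plated at 500-1,000 per well and settled for 5 h beforehand.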
# [10] = qHTS of pediatric cancer cell lines to identify multiple opportunities for drug repurposing: Primary screen for Saos-2 cells (AID 1347097); also: nearly all actives have a fitted effect of over 40% in size; also: potency is read from the fitted curve at half-maximal effect; as to activity change, negative = cytotoxic: % is scaled to controls: 0 for no effect and ±100 for the full control effect
# Procedure, shortened: as §1
# MKL-1 = test: qHTS assay to identify novel small-molecules to repurpose for Merkel cell carcinoma treatment (AID 1296009); conditions: MCC and control cell lines, CellTiter-Glo viability, 72 h; activity change, negative = cytotoxicity: at 46 µM (top of the series); also: potency is read from the fitted curve at half-maximal effect; nearly all actives have a fitted effect of over 60% in size
# Procedure, shortened: as §3
# [11] = tested on: Zika virus NS2B-NS3 protease (unlinked complex); test: Primary screen GU Rhodamine qHTS for Zika virus inhibitors: Unlinked NS2B-NS3 protease assay (AID 1347159); also: % is scaled to controls: 0 for no effect and ±100 for the full control effect; nearly all actives have a fitted effect of over 60% in size
# Procedure, shortened: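 A qHTS format was used, with compound concentrations ranging up to 114 microM. Each compound was preincubated with 25 nM NS2B-NS3 protease, and the substrate was then added at 1.5 microM. Curves were fitted with a 4-parameter Hill model.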
# [12] = Primary redox qHTS assay for identification of artifact compounds. (AID 1845223); conditions: Amplex Red/HRP redox cycling with DTT, fluorescence; redox activity (% of DA3003): at 53.8 µM (top of the series); also: potency is read from the fitted curve at half-maximal effect
# Procedure, shortened: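 Amplex Red (25 uM) and HRP (250 mU/mL) in HBSS, with compounds for 15 min, then 250 uM DTT for 30 min, room temperature, dark. Fluorescence 525/598 nm read; normalized to DMSO and 10 uM DA3003; Hill fit.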
# [13] = Quantitative High-Throughput drug screen in 47 multiple myeloma cell lines against the NCATS MIPE library collection: JIM1_ECACC cell viability assay (AID 1918964; also: potency is read from the fitted curve at half-maximal effect)
# Procedure, shortened: (§4)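 CellTiter-Glo luminescence (ATP) after 48 h compound exposure, 37C/5% CO2; 500 cells/well; MIPE 4.0 approved/investigational drugs pinned in; DMSO = 100%, media only = 0% viability.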
# [14] = Quantitative High-Throughput drug screen in 47 multiple myeloma cell lines against the NCATS MIPE library collection: KMS21BM_JCRB cell viability assay (AID 1918974); conditions: ATP luminescence, 48 h; viability: at 45.8 µM (top of the series); also: potency is read from the fitted curve at half-maximal effect
# Procedure, shortened: as §4
# [15] = qHTS of pediatric cancer cell lines to identify multiple opportunities for drug repurposing: Primary screen for A673 cells (AID 1347092); conditions: A673 Ewing sarcoma viability, CellTiter-Glo ATP luminescence, 48 h; activity change, negative = cytotoxic: at 46 µM (top of the series); also: % is scaled to controls: 0 for no effect and ±100 for the full control effect; nearly all actives have a fitted effect of over 45% in size
# Procedure, shortened: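 A673 cells (500-1,000 cells/well) were treated 48 hours at 37 degrees C with compounds at 11-point (0.78 nM to 46 µM) or 8-point (0.59 nM to 46 µM) dilutions. Viability read by CellTiter-Glo luminescence; concentration-response curves fitted.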
# Tags tell the direction and shape of the fitted curve.
# Chain of UniProt P36969 (P36969 whole entry, looked up): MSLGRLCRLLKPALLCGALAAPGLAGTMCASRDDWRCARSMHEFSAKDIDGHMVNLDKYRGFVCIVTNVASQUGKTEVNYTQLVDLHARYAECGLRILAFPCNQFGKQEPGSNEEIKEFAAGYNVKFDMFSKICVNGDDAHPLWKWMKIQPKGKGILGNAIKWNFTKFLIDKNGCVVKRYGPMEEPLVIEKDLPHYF
smiles,measurement,setting,value
CC(C)(C)c1cc(Br)cc([C@H](CC(=O)O)NC(=O)CNC(=O)c2cc(O)cc(NC3=NCC(O)CN3)c2)c1 (stereo partly specified),Potency,[1],inactive
CC(C)C[C@@H]1[C@H](c2ccccc2)OC(=O)N1CCCN1CCCCCC1,Potency,[2],"inconclusive [cytotoxic, single point]"
COC(=O)[C@H](OC(C)=O)[C@H]1C(C)(C)C(=O)[C@H]2CC3=C4CC(=O)O[C@@H](c5ccoc5)[C@]4(C)CCC3[C@@]1(C)C2=O (stereo partly specified),Potency,[1],"inconclusive [inhibitor, single point]"
COc1cc(CNC(=O)CCCC/C=C/C(C)C)ccc1O,Potency,[3],"inconclusive [inhibitor, partial curve, poor fit]"
CCCCCCCCCCCCCC[N+](C)(C)Cc1ccccc1,Potency,[4],"inconclusive [cytotoxic, single point]"
same,Potency,[5],"inconclusive [cytotoxic, single point]"
same,Potency,[6],active: 5.96 µM
same,Potency,[2],active: 21.1 µM
same,Potency,[7],"inconclusive [cytotoxic, single point]"
same,Potency,[8],"inconclusive [cytotoxic, single point]"
same,Potency,MCC-13,"inconclusive [inhibitor, single point]"
CCCCCOc1ccccc1/C(=C\SC)n1ccnc1,Potency,[4],"inconclusive [cytotoxic, single point]"
same,Potency,[9],"inconclusive [cytotoxic, single point]"
same,Potency,[10],"inconclusive [cytotoxic, single point]"
same,Potency,[2],"inconclusive [cytotoxic, single point]"
same,Potency,[8],"inconclusive [cytotoxic, partial curve, poor fit]"
same,Potency,MKL-1,"inconclusive [inhibitor, partial curve]"
Cc1nc2c(-c3cnc(N)nc3)nc(N3CCOCC3)nc2n1C(C)C,Potency,[11],inactive
CNC(=O)c1nn(C)c2c1C(C)(C)Cc1cnc(Nc3ccc(N4CCN(C)CC4)cc3)nc1-2,Potency,[9],active: 0.59 µM
same,Potency,[5],active: 5.9 µM
same,Potency,[6],active: 3.32 µM
same,Potency,[7],"inconclusive [cytotoxic, full curve]"
same,Potency,[12],"inconclusive [activator, partial curve, poor fit]"
same,Potency,[13],active: 0.743 µM
same,Potency,[14],active: 0.132 µM
same,Potency,MCC-13,active: 5.9 µM
COc1cc(S(C)(=O)=O)ccc1Nc1nc2ccc(-c3ccc(NC(=O)[C@H](C)c4ccc(F)cc4)cc3)cn2n1,Potency,[3],"inconclusive [inhibitor, single point]"
NCCNCCNCCNCCN,"activity change, negative = cytotoxic",[15],inactive: 0.711% [at 9.22 µM]
same,Potency,[7],"inconclusive [cytotoxic, partial curve, poor fit]"
Cc1c(C)c2c(c(C)c1OC(=O)c1cccnc1)CC[C@@](C)(CCC[C@H](C)CCC[C@H](C)CCCC(C)C)O2,Potency,[9],inactive
same,Potency,[10],inactive
